Measured values taken from the supplement of paper PMC4723716.
In all, about 3,600 compounds were measured (“viability index relative to DMSO control”: median about 0.81, lowest 2% from about 0.13 on). This is one part of the list.

test system: Plasmodium falciparum NF54 stage V gametocytes; assay: viability index relative to DMSO control (fraction); higher = less gametocyte killing; details: 1.25 µM, incubation time: 72 h
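Further: 384-well serum-free SaLSSA: MitoTracker Red CMXRos staining with saponin lysis, high-content imaging, treated-well particle count divided by plate-mean count of DMSO wells.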

Structure (SMILES) | viability index
COc1cc2nc(Nc3ccc(F)cc3)nc(N)c2cc1OC | 0.787
COc1cc2nc(NCCCOC(C)C)n3nc(-c4ccccc4)nc3c2cc1OC | 0.667
COc1ccccc1NC(=O)Cn1cnc2sc(C(=O)Nc3ccc(F)cc3)c(C)c2c1=O | 0.792
COc1ccc(C=C2N=C(c3ccc(Cl)cc3)N(c3cc(Cl)ccc3C)C2=O)cc1OC | 1.03
COCCCNC(=O)CSCc1nc(-c2ccccc2F)oc1C | 1.02
C=CC1(C)CC23CC(C(OC(=O)c4ccccc4)c4ccnc5ccccc45)N2CCC13 (stereo unspecified) | 0.779
CC(C)c1ccc(C=CC(=O)NCc2ccco2)cc1 | 0.694
CC1(C)Cc2c(oc3ncn(CCn4cnc5oc6c(c5c4=N)CC(C)(C)SC6)c(=N)c23)CS1 | 0.748
CC[n+]1cccc2ccc3cccnc3c21 | 0.601
Cc1ccc(-c2c3c(nc4sc(C(=O)Nc5ccc(F)cc5)c(N)c24)CCC3)cc1 | 0.636
Cc1cccc(-n2c(CNC(=O)c3ccc(S(=O)(=O)N4CCCCC4)cc3)nnc2SCC(=O)Nc2nccs2)c1 | 1.06
Cc1nnc2sc(SCc3ccc([N+](=O)[O-])cc3)nn2c1=O | 0.735
CCOC(=O)C(=CNc1ccccc1[N+](=O)[O-])C(=O)OCC | 0.954
COc1cc(CNCCCN(C)C)ccc1OCc1ccc(F)cc1Cl | 0.323
COC(=O)c1c(-c2c(F)cccc2Cl)noc1C=CNc1ccc(OC)cc1 | 1.03
CC(C)c1ccc(OCC(=O)NN=Cc2cccc([N+](=O)[O-])c2)cc1 | 1.1
COc1cccc2c1C(=O)c1c(O)c3c(c(O)c1C2=O)CC(O)(C(=O)CO)CC3OC1CC(N)C(O)C(C)O1 (stereo unspecified) | 0.192
c1ccc2cc3c(Nc4ccc(N5CCCCC5)cc4)ccnc3cc2c1 | 0.838
CCOC(=O)CCCCC(=O)c1[nH]c(=O)[nH]c1Cn1ccnc1 | 0.354
CC(C)CCNCC(O)Cn1c2ccc(Cl)cc2c2cc(Cl)ccc21 (stereo unspecified) | 0.286
O=C(NCCCN1CCCC1=O)C(=O)NCC(c1ccco1)N1CCOCC1 (stereo unspecified) | 0.975
COc1ccc(-n2nc(C(=O)NCC(=O)NCCCN3CCOCC3)c3ccccc3c2=O)cc1Cl | 0.819
COc1cc(C=C(C#N)c2nc3ccccc3[nH]2)ccc1OCc1ccc(Cl)cc1 | 1.05

Structure (SMILES) | viability index
CCn1c2ccccc2c2cc(C=NNC(=O)c3nnn(-c4nonc4N)c3-c3ccccc3)ccc21 | 1.28
COc1ccc(C=C2SC(=Nc3ccccc3)NC2=O)cc1 | 0.634
CCC(=O)Nc1ccc2nc(SCC(=O)Nc3ccc(C(C)=O)cc3)sc2c1 | 0.966
COc1ccc(OCCOCCN2CCN(C)CC2)cc1 | 0.963
COc1ccc(-n2c(SC(C)C)nc3sc4c(c3c2=O)CCN(C)C4)cc1 | 0.623
OC(CNC1CCCCC1)Cn1c2ccc(Cl)cc2c2cc(Cl)ccc21 (stereo unspecified) | 0.378
O=C(Cc1ccccc1)NC(c1ccccc1)c1ccc2cccnc2c1O (stereo unspecified) | 1.19
NC12CC3CC(C1)CC(SSC14CC5CC(CC(N)(C5)C1)C4)(C3)C2 | 0.11
Cc1n(N)c2ccccc2[n+]1CC(=O)c1ccccc1 | 0.949
COCCNC(=O)[C@@H]1C[C@@H](NCCC2=C(C)CCCC2(C)C)CN1C(C)C | 1.13
Cc1c2c(n3c(nc4ccccc43)c1C#N)N(CCN(C)C)CC2 | 0.674
COc1ccccc1NC1=C(N2CCCCC2)C(=O)c2ccccc2C1=O | 0.197
CCOC(=O)c1c(-c2ccccc2)oc2c1C(=O)c1ccccc1C2=O | 0.461
CN(C)CCNC(=S)Nc1cccc(C(F)(F)F)c1 | 0.841
CCCc1c(C)nc2ccc(Br)cc2c1O | 0.569
COc1ccc2c(Cl)c(C(=O)Nc3cc(C)on3)sc2c1Cl | 0.845
COC(=O)[C@@H]1C[C@@H](NC(=O)c2ccc(OC)cc2OC)CN1Cc1ccc(C)cc1C | 0.643
CCOC(=O)c1c(NC(=O)c2ccc([N+](=O)[O-])cc2[N+](=O)[O-])sc2c1CCCC2 | 0.815
COC(=O)c1ccc(C=NNc2cc(C)nc3ccc(OC)cc23)cc1 | 0.0573
O=[N+]([O-])c1ccc(C=NNc2nc3ccccc3[nH]2)cc1 | 1.14
O=C1N=C(N2CCOCC2)S/C1=C/c1cccc2ccccc12 | 0.827
CCc1ccc2[nH]c(=O)c(CN(CCN(CC)CC)C(=S)NCCCN(CC)CC)cc2c1 | 1.18
CN(C)C(=O)C1C2NC(=S)N(c3ccccc3)C1(C)Oc1ccccc12 (stereo unspecified) | 1.33

Structure (SMILES) | viability index
COc1ccc(C2CC(=O)C3=C(C2)NC(C)=C(C(=O)OC(C)C)C3c2cccc(Cl)c2)cc1OC (stereo unspecified) | 0.838
Cc1nc2c(C)cccc2c(O)c1CC=C(Cl)Cl | 0.759
O=C(Cc1ccc(Cl)cc1)NNS(=O)(=O)c1ccc([N+](=O)[O-])cc1 | 0.939
COCCNC(=O)c1ccc(NCCc2ccc(Cl)cc2)c(S(=O)(=O)Nc2cccc(C(F)(F)F)c2)c1 | 1
CCCc1ccc(C(=O)NC(=O)c2ccccc2O)cc1 | 1.05
Cc1cc(C(=O)Nc2cnn(Cc3ccc(Cl)cc3Cl)c2)no1 | 0.952
Cc1cccc(OCC(=O)Nc2cccc(NC(=O)COc3cccc(C)c3)n2)c1 | 0.926
CCOc1cccc(Nc2cc(C)nc3ncnn23)c1 | 0.656
CCCCC(CC)C(=O)N1CCN(C(CC)c2nc3ccccc3c(=O)n2C)CC1 (stereo unspecified) | 0.911
CCN1CCN(CCN2C(=O)C3C(C(=O)Nc4ccc(C(C)C)cc4)C4C=CC3(O4)C2C(=O)NC2CCCCC2)CC1 (stereo unspecified) | 1.06
CCN(CC)CCCN(Cc1cc2cc(OC)c(OC)cc2[nH]c1=O)C(=S)Nc1cccc(Cl)c1 | 0.882
CCN(CC)CCCN(Cc1cc2c(C)cc(C)cc2[nH]c1=O)C(=S)NCCCN(C)C | 0.91
CCc1c(C)c(C#N)c2nc3ccccc3n2c1NCc1ccccc1 | 0.521
Brc1ccc(Nc2nc3ccccc3nc2Nc2ccc(Br)cc2)cc1 | 0.645
COc1ccc(CN2CSC3=C(C#N)C(c4cccc(OC)c4)CC(=O)N3C2)cc1 (stereo unspecified) | 0.992
CC[n+]1c(C=CC=C2N(C)c3ccccc3C2(C)C)sc2ccccc21 | 0.307
O=C(Nc1ccc(-c2nc3ccc(NC(=O)c4cccc([N+](=O)[O-])c4)cc3[nH]2)cc1)c1cccc([N+](=O)[O-])c1 | 1.57
CC(C)c1nc(N2CCN(C(=O)Nc3ccccc3)CC2)c(C#N)c2c1COC(C)(C)C2 | 0.0954
COc1cc2c(N3CCOCC3)cc(O)c(CC(=O)Nc3ccccc3)c2cc1OC | 0.8
COc1cccc(-c2ccc(O)c(CNC3CCCCCCC3)c2)n1 | 0.452
CCOc1ccccc1C(=O)NC(Nc1sc2c(c1C(N)=O)CCCC2)(C(F)(F)F)C(F)(F)F | 0.904
CCOC(=O)c1c(-c2ccc3c(c2)OCO3)nc2cc(OC)ccc2c1O | 0.632
Cc1cccc(CCNc2cc(C)nc3nc(C)nn23)c1 | 0.75

Structure (SMILES) | viability index
Cc1cc2ncn(N=Cc3cccnc3)c2cc1C | 0.938
CN(Cc1ccccc1)c1nc2c(c(=O)[nH]c(=O)n2C)n1CCCSc1ncccn1 | 0.83
CCN1C(=Cc2sc3ccc(Cl)cc3[n+]2CC)C=Cc2cc(OC)ccc21 | 0.846
O=C(O)CC(c1ccc2c(c1)OCO2)N1CCS(=O)(=O)CC1 (stereo unspecified) | 0.945
CCCNC(=O)c1ccc(OC2CCN(CC3CCCCC3)CC2)c(Cl)c1 | 0.708
CCCN(CCC)CCCNc1ccc(C(=O)Nc2cccc(OC)c2)cc1[N+](=O)[O-] | 0.793
COc1ccc(C2CC(=O)C3=C(C2)NC(C)=C(C(=O)OC(C)C)C3c2ccc(Cl)cc2Cl)cc1OC (stereo unspecified) | 0.328
Cc1nc(-c2nc3c(s2)CN(C(=O)c2ccncc2)CC3)cs1 | 0.78
COc1ccc(Cn2nnnc2CN2CCc3ccccc3C2)cc1 | 0.768
COc1ccc([N+](=O)[O-])cc1-c1ccc(C=C(C#N)c2nn(CCO)c(N)c2C#N)o1 | 0.598
CCOC(=O)c1cccc(OC(=O)c2ccccc2)c1 | 1.03
CCCOc1ncnc2c1sc1nc3c(cc12)COC(C)(C)C3 | 0.902
COc1ccc(N=Nc2nc3ccc(Br)cc3n2C)cc1 | 0.358
CCOC(=O)c1[nH]nc(C(=O)c2ccccc2)c1-c1ccccc1 | 1.27
O=C1C(=O)N(Cc2cccc3ccccc23)c2ccc(Br)cc21 | 0.897
CCC(C)NC(=O)c1nn(-c2ccc(OC)cc2)c(=O)c2ccccc12 (stereo unspecified) | 0.871
COC(=O)C1CN(Cc2ccccc2)CCC1=O (stereo unspecified) | 0.872
CC(C)(C)c1ccc(C(=O)Nc2ccc(NC(=O)c3ccc(-c4ccc([N+](=O)[O-])cc4)o3)cc2)cc1 | 1.04
COCCOC(=O)C1=C(C)NC2=C(C(=O)CC(c3ccc(OC)c(OC)c3)C2)C1c1ccccc1Cl (stereo unspecified) | 0.544
COc1cc(CN2CCC3(CC2)CC3C(=O)NCCc2ccccc2OC)ccc1O (stereo unspecified) | 1.38
COC(=O)c1ccc(C2C3=C(O)CC(c4ccco4)CC3=Nc3ccccc3N2C(=O)c2ccccc2)cc1 (stereo unspecified) | 0.62
CN1CCc2c(sc3c2C(=O)NC(c2ccc(O)cc2)N3)C1 (stereo unspecified) | 0.753
